In the BET-seq Pho4 binding data (Le et al. 2018):
The list shows a part of the results. Values were computed here from the reads of four pooled replicates and scatter widely.

These sequences were tested against T1, Pho4 (S. cerevisiae) (UniProt P07270) (assay: relative binding free energy (BET-seq); higher = weaker binding). Details: reference: library average.
T1 sequence: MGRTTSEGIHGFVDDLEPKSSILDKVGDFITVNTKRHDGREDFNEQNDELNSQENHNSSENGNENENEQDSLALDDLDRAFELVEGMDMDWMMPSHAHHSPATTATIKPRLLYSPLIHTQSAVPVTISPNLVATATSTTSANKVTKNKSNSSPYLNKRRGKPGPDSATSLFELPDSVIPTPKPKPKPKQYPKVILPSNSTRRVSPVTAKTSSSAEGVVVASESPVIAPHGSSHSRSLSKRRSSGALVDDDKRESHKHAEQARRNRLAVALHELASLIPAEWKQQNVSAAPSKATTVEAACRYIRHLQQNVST

Sequence | relative binding free energy [kcal/mol]
GTTTGCACGTGGAGCG | -0.01
GGGCGCACGTGAATTG | 0.2
TAATACACGTGGTTGT | 0
ATGATCACGTGTTAGT | 0.22
CTAGTCACGTGGTCGG | 0.09
TGTTACACGTGGCCTG | -0.11
GGTCACACGTGTTTAG | 0.21
GCGGGCACGTGCTGGG | -0.2
TTGGGCACGTGTAATG | 0.03
TGTCGCACGTGTTTCG | -0.08
TTTTTCACGTGGAGCT | 0.25
TGTCCCACGTGTGTTG | -0.17
TTGAGCACGTGCTGAG | -0.12
CAAGTCACGTGGGGCT | -0.04
AGGATCACGTGGCCGG | 0.08
TCTGTCACGTGATATA | 0.21
AGTATCACGTGTTGTA | 0.14
TGATACACGTGTATAG | -0.05
ATTAACACGTGAATGT | 0.24
AGTGCCACGTGTTAGG | -0.06
CTATTCACGTGGGGGA | 0.15
GGTTTCACGTGGTCAA | 0.16
GTTTGCACGTGGGTTT | -0.03

Sequence | relative binding free energy [kcal/mol]
TCAGGCACGTGGGATT | -0.07
GAGGCCACGTGGTGGG | -0.14
TGTGTCACGTGACTAT | 0.24
ATGAGCACGTGGGTAC | -0.2
ATGTTCACGTGATACA | 0.34
GCGGTCACGTGAATGG | 0.36
TGCACCACGTGGGTTT | -0.15
GTATGCACGTGGATGT | -0.07
GGGTGCACGTGGGTAT | -0.06
AATCGCACGTGCGTGT | 0
TAACGCACGTGGGCGG | -0.35
GTTGGCACGTGATTAA | 0.09
CGAGACACGTGTTGGT | -0.02
ACGGGCACGTGATATG | -0.05
GTGGGCACGTGATATG | 0
ATGCGCACGTGAGGGA | -0.02
GGATTCACGTGGCGGT | 0.22
TGGTTCACGTGAAACG | 0.55
AGATTCACGTGTTGAT | 0.2
AACGGCACGTGTGAGT | -0.01
TTGAACACGTGAGGGC | 0.39
TTTCGCACGTGGCAGG | 0
GGCGGCACGTGCGTTG | -0.14

Sequence | relative binding free energy [kcal/mol]
GTTATCACGTGTTGAT | 0.14
AGTTCCACGTGTCTGG | 0.19
ATGTTCACGTGCAGGG | 0.12
ATTCTCACGTGTTTGG | 0.15
ACGTACACGTGTGGTT | 0.06
GGTTCCACGTGGGTAG | -0.06
AATACCACGTGAGGTA | 0.34
TGTGTCACGTGACGAT | 0.13
GGGTCCACGTGAGCGG | 0.3
GTGAACACGTGTAGAT | 0.16
TGAATCACGTGGATAT | 0.04
TTAGGCACGTGTCATT | -0.18
GGTCTCACGTGAGAGT | 0.4
TAGTGCACGTGCTAGT | -0.1
TTGTGCACGTGAGGAG | 0.25
CAGTACACGTGTGTGT | 0
ATGTACACGTGATAGT | 0.12
TTAGGCACGTGCAAAG | -0.02
TATTACACGTGTTGAT | 0.11
ATTGTCACGTGGTACT | 0.08
TTTTACACGTGTTGCA | 0.12
TGTAACACGTGAGCTG | 0.27
ATTGGCACGTGATTTC | -0.02

Sequence | relative binding free energy [kcal/mol]
CTAGACACGTGGTGGA | -0.09
TTATACACGTGTGTAC | 0.08
ATGGGCACGTGATTAC | 0.13
GCAGGCACGTGGGGAA | -0.18
GTCGCCACGTGGTTGG | -0.15
GAATGCACGTGCGTGT | -0.01
GGGTGCACGTGAATGG | 0.28
ACTTTCACGTGGGGGT | 0.22
TCAAACACGTGGGGTT | 0.03
TTTGCCACGTGTGGGA | -0.14
GACATCACGTGTGTAT | 0.29
TGAGACACGTGGTTCG | -0.09
GTACGCACGTGAGTGT | 0.15
CTGGGCACGTGTTGCT | -0.14
TGTGGCACGTGTAAGT | 0.1
GTGTGCACGTGGCACG | -0.03
CGGGGCACGTGAAAGT | 0.26
ATGTGCACGTGTATAC | -0.05
ACGAGCACGTGGGTTA | -0.01
AGTGGCACGTGATGCA | 0.01
AGGTACACGTGTATGG | 0.09
GTTGCCACGTGGTGAT | -0.04
GGTATCACGTGTGGGG | 0.24

Sequence | relative binding free energy [kcal/mol]
CGGTACACGTGGTGGC | -0.09
TCAGTCACGTGGTACG | 0.02
TGTTACACGTGGGTCA | -0.13
GGTAACACGTGGATAG | 0.22
GAGTACACGTGAGGTA | 0.26
GGCTGCACGTGTCAGG | 0.04
TCGTTCACGTGGTATG | 0.07
AGTTACACGTGTTCTT | 0.12
GTTGACACGTGTGTTT | 0.18
TGTTGCACGTGGGCCG | -0.16
AGGTGCACGTGACTTA | 0.1
TAGATCACGTGTATGC | 0.19
GGGCGCACGTGTAATG | -0.05
CGGGGCACGTGTGTCT | -0.21
GTCTTCACGTGTAAGA | 0.36
TCTGTCACGTGGCTTG | -0.1
AAAGTCACGTGGATGG | 0.08
AGATGCACGTGAAGGT | 0.16
AATATCACGTGAGGTA | 0.51
GATTTCACGTGGGTAT | 0.16
TTCTTCACGTGTACTT | 0.29
TTTTTCACGTGTGACC | 0.41
AGCTACACGTGGTATT | 0.04
